The subject of this experiment is NCI-H322M lung. The experiment in a line: inhibition of tumour cell growth, NCI panel, 48 h.

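Cells were grown in 96-well plates and exposed to each compound for 48 hours at five concentrations; endpoints were interpolated linearly between bracketing concentrations, or set to the highest concentration if not reached. At the GI50, growth is halved. TGI denotes the concentration required for complete inhibition of growth.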

`Cn1ccnc1C(=O)/C=C/c1ccc(NC(=O)c2ccc(F)cc2)cc1`: the GI50 is 4.47 µM and the TGI was > 33.3 µM.
